# From paper PMC4336329 (PLoS ONE, 2015)
# Hit rate of the full screen: of about 310,000 compounds, about 2,200 (0.71%) showed an effect of 50% or more. Effects have a minus sign here. The list shows a part of the results.
# Target: human ether-à-go-go-related gene (hERG) potassium channel (human, UniProt Q12809)
# Test: primary screen, population patch clamp on CHO cells stably expressing hERG
# human ether-à-go-go-related gene (hERG) potassium channel, sequence (Q12809 whole entry, looked up): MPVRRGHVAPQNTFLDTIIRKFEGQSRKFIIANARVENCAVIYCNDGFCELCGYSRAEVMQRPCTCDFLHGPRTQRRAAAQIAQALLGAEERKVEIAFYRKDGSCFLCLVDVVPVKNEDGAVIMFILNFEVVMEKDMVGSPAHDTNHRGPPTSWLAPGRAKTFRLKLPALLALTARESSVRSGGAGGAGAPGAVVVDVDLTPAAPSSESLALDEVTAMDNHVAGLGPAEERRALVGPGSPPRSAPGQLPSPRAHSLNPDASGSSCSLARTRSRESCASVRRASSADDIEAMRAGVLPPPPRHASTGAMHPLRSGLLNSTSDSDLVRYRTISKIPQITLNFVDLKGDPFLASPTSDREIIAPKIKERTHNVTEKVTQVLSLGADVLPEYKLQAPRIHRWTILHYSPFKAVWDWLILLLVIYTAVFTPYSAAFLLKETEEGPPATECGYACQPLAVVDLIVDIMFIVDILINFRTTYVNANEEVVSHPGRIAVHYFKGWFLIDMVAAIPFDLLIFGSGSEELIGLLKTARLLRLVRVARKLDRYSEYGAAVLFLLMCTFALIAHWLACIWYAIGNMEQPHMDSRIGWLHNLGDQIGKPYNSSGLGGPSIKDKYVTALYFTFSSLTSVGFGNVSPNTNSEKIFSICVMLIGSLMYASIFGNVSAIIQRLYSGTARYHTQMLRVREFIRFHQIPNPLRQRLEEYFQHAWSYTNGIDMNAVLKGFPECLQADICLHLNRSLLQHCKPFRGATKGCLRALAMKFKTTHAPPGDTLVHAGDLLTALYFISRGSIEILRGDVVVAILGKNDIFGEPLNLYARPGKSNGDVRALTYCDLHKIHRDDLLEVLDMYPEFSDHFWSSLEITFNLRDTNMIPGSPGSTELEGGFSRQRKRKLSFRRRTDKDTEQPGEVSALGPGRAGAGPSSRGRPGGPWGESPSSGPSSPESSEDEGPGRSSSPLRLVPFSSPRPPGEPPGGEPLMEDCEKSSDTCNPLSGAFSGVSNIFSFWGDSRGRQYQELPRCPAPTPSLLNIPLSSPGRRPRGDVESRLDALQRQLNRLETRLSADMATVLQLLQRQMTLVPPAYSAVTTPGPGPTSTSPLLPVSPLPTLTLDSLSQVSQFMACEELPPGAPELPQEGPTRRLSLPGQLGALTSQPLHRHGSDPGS
row,Compound,"hERG current change (%, negative = inhibition) at 1uM [%]"
1,O=C(COc1cc2oc(=O)c3c(c2cc1Cl)CCC3)Nc1ccccn1,25.5
2,Cc1ccc(S(=O)(=O)NCC(=O)OCC(=O)N2CCc3ccccc32)cc1,7.58
3,CCC(C)NC(=S)N1CCN(C)CC1.O=C(O)C(=O)O (centres unmarked),6.59
4,O=C(NC1CCCCC1)C1CCCN1S(=O)(=O)c1cccc2nsnc12 (centres unmarked),0.411
5,C=CCN1CCC2(C)c3cc(O)ccc3CC1C2C.Cl (centres unmarked),0.0104
6,Cc1cc(NC(=O)CSc2ncnc3c2cnn3-c2ccccc2)no1,1.35
7,Nc1ncnc2nc(SCCc3ccccc3)[nH]c12,7.78
8,Fc1ccccc1OCCCCSc1ncccn1,-3.5
9,CCn1c(SCC(=O)n2c(C)c(C)c3ccccc32)nnc1-c1ccco1,4.66
10,COc1ccc(CCN2CC(C(=O)N(C)Cc3cccnc3)CC2=O)cc1OC (centres unmarked),12.1
11,COc1ccc(NS(=O)(=O)c2cc([N+](=O)[O-])ccc2N/N=C\c2c(C)[nH]c3ccccc23)cc1,21.6
12,CCCCc1ccc(NC(=S)NCC2CCCO2)cc1 (centres unmarked),5.49
13,COC(=O)c1ccc(C(=O)OC)c(NC(=S)N2CCN(c3ccccc3F)CC2)c1,-29.5
14,O=C(O)CC(CP(=O)(c1ccccc1)c1ccccc1)C(=O)O (centres unmarked),6.5
15,CC(=O)N1CCc2ccc(S(=O)(=O)N3CCc4ccccc43)cc21,-8.82
16,COc1ccccc1N1CCN(C2CCCN(Cc3cccc(O)c3)C2)CC1 (centres unmarked),4.93
17,COc1ccccc1NCC(=O)c1ccc(Cl)cc1,14.4
18,CC1CC(NC(=O)/C=C/C(=O)O)CC(C)(C)C1 (centres unmarked),14.1
19,O=C(CSc1nnc(-c2ccccc2Cl)o1)Nc1ccccn1,12.5
20,COc1ccc(C)cc1NC(=O)Nc1ccccc1SC,7.54
21,Nc1cc(OC(=O)c2ccccc2Br)nn1S(=O)(=O)c1ccccc1,16.2
22,COc1ccc(OCC(=O)N2CCN(C(=O)c3ccc([N+](=O)[O-])cc3)CC2)cc1,-43.2
23,CCOc1ccccc1NC(=S)Nc1ccc2cn[nH]c2c1,8.93

row,Compound,"hERG current change (%, negative = inhibition) at 1uM [%]"
1,COc1cc(/C=C2\C(=N)N3N=C(C)SC3=NC2=O)cc(OC)c1OCCOc1ccccc1C,16.6
2,CC1CCN(S(=O)(=O)c2cccc(-c3csc(-c4cccnc4)n3)c2)CC1,3.5
3,O=C(CSc1nnc(-c2ccccc2)o1)OCc1ccccc1,13.1
4,Cc1ccc(N2CC3=C(C2=O)C(c2ccccc2)NC(=O)N3C)cc1 (centres unmarked),6.1
5,COc1ccc(CCNC(=O)CSc2c[nH]c3ccccc23)cc1OC,1.43
6,N#C/C(=C\c1ccc(N2CCOCC2)o1)C(=O)NC1CCCCC1,10.1
7,CN(C)C(=O)CN1CCN(c2nc3nonc3nc2N2CCCCC2)CC1,4.21
8,Cc1ccc2c(=O)cc(C(=O)NCCc3ccc(S(N)(=O)=O)cc3)oc2c1,14.4
9,COc1ccc(S(=O)(=O)N(C)CC(=O)N2CCCCCC2)cc1,18
10,Cc1ccc(NC(=O)COC(=O)c2cccc3c(=O)c(C)c(-c4ccccc4)oc23)cc1,8.91
11,COc1ccc(-n2c(C)cc(C(=O)COC(=O)c3cc(NC(=O)c4cccs4)c(OC)c(OC)c3)c2C)cc1,7.28
12,CCC(=O)N(Cc1ccco1)c1nc(-c2ccc(OC)cc2)cs1,5.7
13,Cc1c(Cc2ccccc2)sc(NC(=O)C(C)(C)C)c1C(N)=O,0.402
14,O=S(=O)(NC(=NCc1ccccc1)c1ccc(F)cc1)c1ccc(Cl)cc1,19.9
15,COc1ccc(C(=O)N(C)CC(O)c2ccccc2)cc1OC1CCN(C(C)=O)CC1 (centres unmarked),7.98
16,Cc1[nH]n(-c2ccc(F)cc2)c(=O)c1/C=N/c1sc2c(c1C#N)CCCC2,18.2
17,CCc1ccc(/C=C2\Oc3cc(OC(=O)N4CCOCC4)ccc3C2=O)cc1,15.6
18,CNc1nc(-c2c(C)[nH]c3ccc(OC)cc23)cs1,8.83
19,Brc1ccc(Nc2c3c(nc4ncnn24)CCC3)cc1,-7.63
20,COc1ccc(CN(C)C(=O)Cc2ccc(S(=O)(=O)N3CCOCC3)s2)cc1OC,15.7
21,COc1ccc(C(=O)Oc2cc(/C=N/NS(=O)(=O)c3ccccc3)ccc2OC)cc1,10.6
22,CCOc1ccc(C(=O)NC(=S)NCc2cccnc2)cc1,14.6
23,O=C(Nc1ccncc1)Nc1ccc(F)cc1F,20.1

row,Compound,"hERG current change (%, negative = inhibition) at 1uM [%]"
1,C[C@H](NC(=O)OCc1ccccc1)C(=O)NNC(=O)[C@H](C)NC(=O)OCc1ccccc1,13.4
2,Cc1cccc(NC(=O)NCC2CCN(c3ccc(S(=O)(=O)N4CCOCC4)cc3)CC2)c1,8.19
3,O=S(=O)(c1ccc(SCc2ccccc2)nc1)N1CCCCCC1,5.08
4,COc1ccc(OC)c2sc(N(CCN(C)C)C(=O)c3cc(Cl)sc3Cl)nc12.Cl,11.4
5,CCOC(=O)CCCn1nc(C)n2c(cc3sccc32)c1=O,-7.67
6,COc1ccc(NC(=O)c2cc([N+](=O)[O-])ccc2NC(=O)CNCc2ccccn2)c(OC)c1,9.51
7,Cc1ccc(S(=O)(=O)Nc2nc(C)c(C(=O)N/N=C/c3ccccc3)s2)cc1,11
8,COc1ccc(C(=O)Nc2ccc(S(=O)(=O)N3CCN(C)CC3)cc2)cc1,16.1
9,O=C(Nc1nc2c(s1)CCCC2)C1COc2ccccc2O1 (centres unmarked),8.29
10,Cc1ccc(C)c(SCC(=O)NNC(=O)c2csc(N3CCOCC3)n2)c1,-25.3
11,CSc1cccc(NC(=S)N2CCC(N(C)C3CCCCC3C)CC2)c1 (centres unmarked),-20.1
12,COC(=O)CCC(=O)N1CCOCCOCCOCC1,7.09
13,CC(Cc1ccccc1)NC(=O)/C=C/c1ccc([N+](=O)[O-])cc1 (centres unmarked),-13.4
14,COc1ccc(-c2nc3c(c4nnc(SC(C)C(=O)Nc5ccccc5)n24)COC(C)(C)C3)cc1 (centres unmarked),5.68
15,CCOc1ccc(S(=O)(=O)Nc2cccc(C(=O)N3CCN(c4cccc(OC)c4)CC3)c2)cc1,13
16,O=C(NCc1cccs1)C1CCCN(S(=O)(=O)c2cnc[nH]2)C1 (centres unmarked),13
17,CC1(C)NC(=O)N(CCOc2ccc3c(c2)CCC3)C1=O,0.869
18,COCCNC(=O)CN1CCC(NC(=O)Nc2ccc(C(F)(F)F)cc2)CC1,-19.5
19,COc1cccc(CN(C)C(=O)c2ccc(OCC(=O)Nc3cccc(C(F)(F)F)c3)c(OC)c2)c1,1.15
20,CC1=NN(/C(=N\c2nnc(C)s2)Nc2ccccc2)[C@H](c2ccc(C)cc2)S1,4.95
21,COc1ccc(NC(=O)CN(C)C(=O)c2cnc(Cl)c(Cl)c2)cc1,5.13
22,CC(=O)Nc1ccc(NC(=O)COC(=O)/C=C/c2ccc3c(c2)OCO3)cc1,14.3
23,Cn1/c(=N/NC(=O)c2ccccc2F)sc2ccccc21,13.3

row,Compound,"hERG current change (%, negative = inhibition) at 1uM [%]"
1,O=C(CSc1nc2[nH]ncc2c(=O)[nH]1)NCc1ccccc1,16.7
2,CC1CCN(C(=S)c2cccc(O)c2)CC1,14.5
3,O=C(CSc1nncn1-c1cccnc1)Nc1ccccc1[N+](=O)[O-],15
4,CCC(=O)c1ccc(N2CCCCC2)c(F)c1,14.4
5,O=C(Cc1ccc(S(=O)(=O)N2CCOCC2)s1)NNC(=O)c1ccccc1Cl,9.43
6,Cc1cc2ccccn2c1C(=O)c1ccc(C#N)cc1,19
7,COc1ccc(CCC(=O)NNC(=O)c2cccs2)cc1,8.22
8,Cc1c(N=Nc2ccc(O)cc2)c(=O)n(-c2ccccc2)n1C,6.25
9,Cc1ccc(C(=O)C(C)OC(=O)CN2C(=O)NC3(CCCC3)C2=O)cc1C (centres unmarked),15.6
10,C=CCc1c(C)nc(N)[nH]c1=O,11.9
11,CC1Sc2ccc(S(=O)(=O)CCC(=O)Nc3ccccn3)cc2NC1=O (centres unmarked),18.3
12,O=C(CC(c1ccco1)S(=O)(=O)c1ccccc1)c1ccccc1 (centres unmarked),6.99
13,CCCc1nnc(NC(=O)CCC(=O)NCc2ccccc2Cl)s1,5.93
14,Cc1cc(C)nc(SCC(=O)Nc2ccc(N3CCOCC3)cc2)n1,-6.38
15,c1ccc(-c2nc3ccccc3s2)nc1,12.9
16,COC(=O)[C@@H](NC(=O)NCc1ccccc1Cl)C(C)C,12.1
17,COc1ccc(CCNC(=O)Cn2nc(C)n3nc(-c4ccccc4)cc3c2=O)cc1OC,11.9
18,O=C(O)c1cc2cc(F)ccc2[nH]1,14.3
19,O=C(c1cc(-c2cccs2)nn1-c1ccccc1)N1CCN(S(=O)(=O)c2ccccc2)CC1,9.21
20,CCOC(=O)c1cnn(-c2cc(C)c3ccccc3n2)c1N,-5.92
